Measured values as given in PubChem BioAssay AID445 (National Center for Advancing Translational Sciences (NCATS), 2006).
Hit rate of the full screen: of about 110,000 compounds, about 40 (0.04%) were called active. This list was built around the results that the source calls inconclusive (neither active nor inactive); the mix of calls is not that of the screen. Calls follow the shape of the dose curve; as a rule, active = well fitted curve in the direction sought with a large enough effect in the signal ratio (not every such curve was filed as active); inconclusive = small, poorly fitted or top-dose-only effect, or a change in a side signal; inactive = flat fitted curve, though single readings scatter; the % refers to the signal ratio. Where the call is inconclusive, the potency comes from a doubtful curve fit.

Experiment: IkB Signaling;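 as to IkBa stabilization activation: 0% = basal untreated cells and 100% = reference inhibitor full response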
Conditions: ABC-DLBCL IkBa-CBG/CBR dual luciferase ratio (green luciferase fused to IkBa over red control in OCI-Ly3 lymphoma cells), 4 h; IkBa stabilization activation: at 57.1 µM (top of the series), scaled: untreated 0%, proteasome inhibitor 100% unless noted
How it was run: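 In this assay, an IκBα–CBG68 fusion accumulates when IKK-driven degradation is blocked; native CBR normalizes for cell number. OCI-Ly3 cells were treated 4 h with compound and doxycycline, then green and red light read after Chroma-Glo addition.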
Potency is read from the fitted curve at half-maximal effect.

| SMILES | IkBa stabilization activation | Potency |
| --- | --- | --- |
| CCC(=O)Nc1cc2nn(-c3ccc(OC)cc3)nc2cc1C | inactive: -2.8% | – |
| O=C(CSc1nc(-c2ccco2)cc(C(F)(F)F)n1)N1CCN(Cc2ccccc2)CC1 | inconclusive: -7.83% [signal inhibitor] | – |
| CC1=C(c2ccc(C)cc2)S(=O)(=O)N(Cc2ccc(C(=O)Nc3ccc(C)c(F)c3)cc2)C1=O | inactive: 0.0723% | – |
| Cc1ccc(-c2ccc(CCC(=O)O)n2-c2ccc(C(N)=O)cc2)cc1 | inconclusive: 1.08% [signal inhibitor] | – |
| Cc1ccc(CNC(=O)c2ccc(Cn3c(=O)c4ccccc4n(CC(=O)Nc4c(C)cc(C)cc4C)c3=O)cc2)cc1 | inactive: 19% | – |
| Nc1nnc(-c2cc3ccccc3oc2=O)s1 | inconclusive: 3.43% [signal inhibitor] | – |
| O=C(c1ccc(Br)o1)N(Cc1ccccc1)c1ccccn1 | inactive: 5.34% | – |
| Cc1ccc2[nH]c3c(c2c1)CCc1cn[nH]c1-3 | inactive: 0.167% | – |
| Cc1cc2c(cc1NS(=O)(=O)c1cccc(C#N)c1)n(C)c(=O)c(=O)n2C | inactive: -1.46% | – |
| COc1ccc(NS(=O)(=O)c2cc3c(cc2C)N(C(C)=O)CCO3)cc1 | inactive: 12.8% | – |
| CC1=Nc2cc(C(=O)N3CCC(C)CC3)ccc2Sc2ccc(Cl)cc21 | inconclusive: 4.03% [signal inhibitor] | – |
| CN(C)C(=O)c1ccc(-c2nc(NCc3ccccc3)c3ccccc3n2)cc1 | inactive: -1.21% [at 11.4 µM, scaled: untreated 0%, proteasome inhibitor 100%] | – |
| CC(C)N(C)C | inactive: -1.91% | – |
| CCCSc1nc(-c2ccccc2)[nH]c1S(=O)(=O)c1ccc(C)cc1 | inconclusive: 0.219% [signal inhibitor] | – |
| Cc1ccc(-c2c(C(=O)NCCc3ccccc3)oc(=O)c3ccccc23)cc1 | inconclusive: 0.666% [signal inhibitor] | – |
| COc1ccccc1NC(=O)c1cnc(SCC(=O)N2CCOCC2)n(C)c1=O | – | inconclusive: 20 µM [rising, partial curve] |
| CCn1cc(C(=O)NCCCOC)c(=O)c2cc(S(=O)(=O)N3CCc4ccccc4C3)ccc21 | inactive: -2% | – |
| COC(=O)c1c(C(=O)OC)c(C)n(Cc2ccco2)c1C | inactive: -1.63% | – |
| CCOC(=O)C1CCCN(CC(=O)Nc2cc(C)c3c(=O)oc4ccccc4c3n2)C1 (stereo not given) | inconclusive: 3.87% [signal inhibitor] | – |
| COc1cccc(C(CC(=O)NCC2CCCO2)NS(=O)(=O)c2ccc(C)cc2)c1OC (stereo not given) | inactive: -0.56% | – |
| C/C(CC/C(C)=N/O)=N/O | inactive: -0.665% [at 11.4 µM, scaled: untreated 0%, proteasome inhibitor 100%] | – |
| Cc1ccccc1NC(=O)c1nc[nH]c1C(=O)NCc1ccccc1 | – | inconclusive: 39.8 µM [rising, single point] |
| Cc1c(Cl)cccc1Nc1nc2ccc(C(=O)c3ccccc3)cc2n2cnnc12 | inactive: 0.678% | – |
| CCCOc1ccc(N)cc1N | inactive: 26.8% | – |
| Cc1ccc(NC(=O)Cn2c(-c3cncs3)nc3ccccc32)c(Br)c1 | inactive: 1.58% | – |

| SMILES | IkBa stabilization activation | Potency |
| --- | --- | --- |
| Cc1ccc(CNC(=O)CN2C(=O)C3(SCC(=O)N3c3ccc(F)cc3)c3ccccc32)cc1 (stereo not given) | inconclusive: 6.43% [signal inhibitor] | – |
| COc1ccc2c(c1)Cc1sc(NC(=O)c3cccc(Br)c3)nc1-2 | inconclusive: 5.31% [signal inhibitor] | – |
| COC(=O)COc1ccc(S(=O)(=O)N2CCN(c3ccccc3F)CC2)cc1 | inconclusive: 16.5% [signal inhibitor] | – |
| COc1ccc(OC)c(C(=O)CSc2nnc(Cc3cccs3)n2C)c1 | inconclusive: 13.8% | – |
| Brc1cccc(-c2nnc(-c3ccccc3)o2)c1 | inactive: 5.23% | – |
| CCCCCn1c(CCNC(=O)c2cccc(C)c2)nc2ccccc21 | inconclusive: 2.18% [signal inhibitor] | – |
| Cc1ccc(S(=O)(=O)c2cn(CC(=O)Nc3cccc(C)c3)c3cc4c(cc3c2=O)OCO4)cc1 | inconclusive: 3.34% [signal inhibitor] | – |
| CC1CCC(C(=O)NC(C(=O)OCC(=O)c2ccc(Br)cc2)C(C)C)CC1 (stereo not given) | – | inconclusive: 6.31 µM [signal inhibitor, partial curve] |
| Cc1csc2nc(-c3ccc(NS(=O)(=O)c4cc(F)ccc4F)cc3)cn12 | inconclusive: 2.95% [signal inhibitor] | – |
| COc1ccc(CCN2C(=O)CN(C3CCCCCC3)C(=O)C2c2ccc(OC(C)C)c(OC)c2)cc1OC (stereo not given) | inconclusive: 0.206% [signal inhibitor] | – |
| CN(C(=O)c1ccc2c(Cl)c3c(nc2c1)CCC3)c1ccccc1F | inconclusive: 0.789% [signal inhibitor] | – |
| COc1ccccc1C(=O)Nc1ccc(C(=O)OCc2cc(=O)n3nc(C)sc3n2)cc1 | inactive: 0.848% | – |
| Cc1ccc(-c2nn3c(C)nnc3c3ccccc23)cc1S(=O)(=O)NCc1ccco1 | inconclusive: 10.7% [signal activator] | – |
| Cc1ccc(Cc2cn3cc(-c4ccc(F)cc4)nc3s2)cc1 | inactive: 2.03% | – |
| Cc1c(C(=O)OCC(=O)c2c(N)n(CC(C)C)c(=O)n(C)c2=O)oc2ccccc12 | inconclusive: 2.29% [signal inhibitor] | – |
| CC(=O)n1c2ccccc2c2c(C#N)c(N3CCCCC3)sc21 | inactive: -0.958% | – |
| Cc1ccccc1CSc1ccc(-c2cccs2)nn1 | inactive: -0.814% | – |
| Cc1cccc(NC(=O)c2cc(S(=O)(=O)N3CCCCCC3)cn2C)c1C | inconclusive: 1.43% [signal inhibitor] | – |
| COc1ccc(C2=NOC(C(=O)Nc3cc(Br)ccc3O)C2)cc1OC (stereo not given) | inconclusive: 6.17% [signal inhibitor] | – |
| Cc1ccc(NC(=O)Cn2cc(C(=O)C3CC3)c3ccccc32)cc1C | inactive: 1.42% | – |
| CCc1ccc(CNC(=O)C2CCCN(S(=O)(=O)c3ccc4c(ccn4C)c3)C2)cc1 (stereo not given) | inconclusive: 2.55% [signal inhibitor] | – |
| CCOC(=O)N1CCC(NC(=O)c2cc(-c3ccc(F)cc3)[nH]c2C)CC1 | inconclusive: -0.174% [signal inhibitor] | – |
| COCCOC(=O)c1[nH]c2c(c1C)C(=O)CC(c1ccco1)C2 (stereo not given) | – | inconclusive: 20 µM [signal activator, partial curve] |
| CCSc1nc2c([nH]c3ccccc32)c(=O)n1-c1ccc(F)cc1 | inactive: -2.03% | – |
| O=C(Nc1ccc2c(c1)OCO2)N1CCN(C/C=C/c2ccccc2)CC1 | inactive: 0.546% | – |

| SMILES | IkBa stabilization activation | Potency |
| --- | --- | --- |
| COc1cccc(Nc2ncc3nc(-c4ccccc4)c(=O)n(C[C@H]4CCCO4)c3n2)c1 | inactive: -4.84% [at 11.4 µM, scaled: untreated 0%, proteasome inhibitor 100%] | – |
| Cc1cccc(C(C)C)c1NC(=O)C(NS(=O)(=O)c1cccc2nsnc12)c1ccccc1 (stereo not given) | inconclusive: 1.91% [signal inhibitor] | – |
| c1ccc(C2=Nn3c(nnc3-c3ccncc3)SC2)cc1 | inactive: -1% | – |
| Nc1c2ccccc2nc2ccccc12 | inconclusive: -5.54% [signal activator] | – |
| Cc1cccc(-n2ncc3c(NC(C)C)ncnc32)c1 | – | inconclusive: 39.8 µM [signal inhibitor, single point] |
| C[C@@H]1CNCCN1S(=O)(=O)c1cccc2cnccc12 | inconclusive: -0.526% [signal inhibitor] | inconclusive: 39.8 µM [signal inhibitor, partial curve, poor fit] |
| CC(NC(=O)CSc1n[nH]c(=O)n1C1CC1)C12CC3CC(CC(C3)C1)C2 (stereo not given) | inactive: 2.05% | – |
| CCOC(=O)c1scc(-c2ccccc2)c1S(=O)(=O)Nc1ccccc1OC | inconclusive: -0.763% [signal inhibitor] | – |
| N#Cc1nc(-c2ccc(COc3ccc(Cl)cc3)o2)oc1N1CCCCC1 | inconclusive: -1.5% [signal inhibitor] | – |
| O=C1c2[nH]nc(-c3ccccc3O)c2C(c2cccc(OCc3ccccc3)c2)N1CCCO (stereo not given) | inconclusive: 2.02% [signal inhibitor] | – |
| CCc1cccc(C)c1Nc1c(-c2ccc(F)cc2)nc2sccn12 | inconclusive: -2.32% [signal inhibitor] | – |
| Cc1ccc2c(=O)c(C(=O)c3ccccc3)cn(CC(=O)NCc3ccccc3)c2n1 | inconclusive: -0.87% [signal inhibitor] | – |
| CCOc1ccc(NC(=O)CSc2ncc(S(=O)(=O)c3ccc(F)c(C)c3)c(=O)[nH]2)cc1 | inconclusive: -0.61% [signal inhibitor] | – |
| Cc1ccc(CNc2nc(-c3ccco3)nn2C(=O)c2ccccc2[N+](=O)[O-])cc1 | inactive: -0.804% | – |
| COc1ccc(/C=N/n2c(SC)nnc2-c2ccccc2)c(OC)c1OC | inactive: 5.49% | – |
| CCn1c(SCC(=O)N2c3ccccc3Sc3ccccc32)nc2c1c(=O)n(C)c(=O)n2C | inactive: -0.223% | – |
| O=C(O)c1oc2ccccc2c1-n1cccc1 | – | inconclusive: 15.8 µM [signal inhibitor, partial curve] |
| CCc1ccc(C(c2ccccc2)c2c(C)[nH]c3ccccc23)s1 (stereo not given) | inactive: 1.2% | – |
| Cc1cccc(CNC(=O)c2ccc3c(c2)N(C)CCS3)c1 | inconclusive: 1.47% [signal inhibitor] | – |
| CCCc1nc(SCc2ccccn2)c2c(=O)n(C)c(=O)n(C)c2n1 | inactive: 5.69% | – |
| CC1(C)C(C=C(Cl)Cl)C1C(=O)N1CCN(c2ccccc2)CC1 (stereo not given) | inconclusive: 4.2% [signal inhibitor] | – |
| O=S(=O)(CCSc1nc2ccccc2o1)c1nc2ccccc2s1 | inconclusive: -1.95% [signal inhibitor] | – |
| Cc1ccccc1CNC(=O)Cn1nc(C)c2nn(-c3ccc(Cl)cc3)c(C)c2c1=O | inconclusive: -0.427% [signal inhibitor] | – |
| COc1ccc(N2CCN(c3ncccc3-c3nc(-c4ccccc4C)no3)CC2)cc1 | inconclusive: -1.09% [signal inhibitor] | – |
